Laboratory results taken from US20190169308A1 (ALLIGATOR BIOSCIENCE, published 2019).

Target: T1, CD137-bio (Ancell #502-030) (human, UniProt Q07011 24-186, biotinylated)
T1 construct: detection reagent of the dual ELISA
Experiment: dual ELISA: coated 5T4-Fc, detection with CD137-bio
Protocol: Bispecific binding to both targets, CD137 and 5T4, was evaluated using a standard ELISA protocol. Plates (#655074, Greiner Bio-One GmbH, Germany) were pre-coated with 0.5 μg/ml 5T4-Fc (obtained from Professor Peter Stern, University of Manchester) overnight. CD137-5T4 bsAb were diluted from 8 to 2×10⁻³ μg/ml in 1:4 dilutions and added in duplicates of 50 μl to each well. CD137-bio (Ancell #502-030) was used as detection antibody at 0.5 μg/ml and the binding was detected with Streptavidin-HRP (Pierce #21126). The ELISA was developed with SuperSignal ELISA PICO Chemiluminescent substrate (Thermo Scientific Pierce, Rockford, Ill. USA) during 2-10 minutes and read in an automated microplate based multi-detection reader (FLUOstar OPTIMA, Netherlands).

T1 sequence (Q07011 24-186 limits assumed): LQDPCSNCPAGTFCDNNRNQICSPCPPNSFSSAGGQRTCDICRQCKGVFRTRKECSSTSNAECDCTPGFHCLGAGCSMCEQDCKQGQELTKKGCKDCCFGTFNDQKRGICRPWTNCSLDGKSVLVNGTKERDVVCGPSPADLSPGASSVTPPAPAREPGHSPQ

B1: 1618LO11-1210LO1 (bispecific antibody, human IgG1, kappa)
heavy: EVQLLESGGGLVQPGGSLRLSCAASGFTFDYGSMYWVRQAPGKGLEWVSSISSGSGSTYYADSVKGRFTISRDNSKNTLYLQMNSLRAEDTAVYYCARSSYYGSYYSIDYWGQGTLVTVSS[no letters for human IgG1 constant region with changes]GGGGSGGGGSEVQLLESGGGLVQPGGSLRLSCAASGFDFESYAMSWVRQAPGKGLEWVSAISGSGGSTYYADSVKGRFTISRDNSKNTLYLQMNSLRAEDTAVYYCARYYGGYYSAWMDYWGQGTLVTVSSGGGGSGGGGSGGGGSDIQMTQSPSSLSASVGDRVTITCRASQSIRSALNWYQQKPGKAPKLLIYAASSLQSGVPSRFSGSGSGTDFTLTISSLQPEDFATYYCQQTYGYLHTFGQGTKLEIK
light: DIQMTQSPSSLSASVGDRVTITCRASQSISSYLNWYQQKPGKAPKLLIYAASSLHSGVPSRFSGSGSGTDFTLTISSLQPEDFATYYCQQYYDNLPTFGQGTKLEIKRTVAAPSVFIFPPSDEQLKSGTASVVCLLNNFYPREAKVQWKVDNALQSGNSQESVTEQDSKDSTYSLSSTLTLSKADYEKHKVYACEVTHQGLSSPVTKSFNRGEC
binding result: binds

B2: 1618LO1-1210LO1 (bispecific antibody, human IgG1, kappa)
heavy: EVQLLESGGGLVQPGGSLRLSCAASGFTFDYGSMYWVRQAPGKGLEWVSSISSGSGSTYYADSVKGRFTISRDNSKNTLYLQMNSLRAEDTAVYYCARSSYYGSYYSIDYWGQGTLVTVSS[no letters for human IgG1 constant region with changes]GGGGSGGGGSEVQLLESGGGLVQPGGSLRLSCAASGFDFESYAMSWVRQAPGKGLEWVSAISGSGGSTYYADSVKGRFTISRDNSKNTLYLQMNSLRAEDTAVYYCARYYGGYYSAWMDYWGQGTLVTVSSGGGGSGGGGSGGGGSDIQMTQSPSSLSASVGDRVTITCRASQSIRSALNWYQQKPGKAPKLLIYAASSLQSGVPSRFSGSGSGTDFTLTISSLQPEDFATYYCQQTYGYLHTFGQGTKLEIK
light: DIQMTQSPSSLSASVGDRVTITCRASQSISQYLNWYQQKPGKAPKLLIYGASSLQSGVPSRFSGSGSGTDFTLTISSLQPEDFATYYCQQYYDNLPTFGQGTKLEIKRTVAAPSVFIFPPSDEQLKSGTASVVCLLNNFYPREAKVQWKVDNALQSGNSQESVTEQDSKDSTYSLSSTLTLSKADYEKHKVYACEVTHQGLSSPVTKSFNRGEC
binding result: binds

B3: 1618LO1-1210LO2 (bispecific antibody, human IgG1, kappa)
heavy: EVQLLESGGGLVQPGGSLRLSCAASGFTFDYGSMYWVRQAPGKGLEWVSSISSGSGSTYYADSVKGRFTISRDNSKNTLYLQMNSLRAEDTAVYYCARSSYYGSYYSIDYWGQGTLVTVSS[no letters for human IgG1 constant region with changes]GGGGSGGGGSEVQLLESGGGLVQPGGSLRLSCAASGFDFDSYAMSWVRQAPGKGLEWVSAISGRGGSTYYADSVKGRFTISRDNSKNTLYLQMNSLRAEDTAVYYCARYYGGYYSAWMDYWGQGTLVTVSSGGGGSGGGGSGGGGSDIQMTQSPSSLSASVGDRVTITCRASQSIRSALNWYQQKPGKAPKLLIYAASSLQSGVPSRFSGSGSGTDFTLTISSLQPEDFATYYCQQTYGYLHTFGQGTKLEIK
light: DIQMTQSPSSLSASVGDRVTITCRASQSISQYLNWYQQKPGKAPKLLIYGASSLQSGVPSRFSGSGSGTDFTLTISSLQPEDFATYYCQQYYDNLPTFGQGTKLEIKRTVAAPSVFIFPPSDEQLKSGTASVVCLLNNFYPREAKVQWKVDNALQSGNSQESVTEQDSKDSTYSLSSTLTLSKADYEKHKVYACEVTHQGLSSPVTKSFNRGEC
binding result: binds

B4: 1618LO3-1210 (bispecific antibody, human IgG1, kappa)
heavy: EVQLLESGGGLVQPGGSLRLSCAASGFTFSYGSMYWVRQAPGKGLEWVSSISSGSGSTHYADSVKGRFTISRDNSKNTLYLQMNSLRAEDTAVYYCARSSYYGSYYSIDYWGQGTLVTVSS[no letters for human IgG1 constant region with changes]GGGGSGGGGS[no letters for about 100 residues]YYGGYYSAWMDYWGQGTLVTVSSGGGGSGGGGSGGGGSDIQMTQSPSSLSASVGDRVTITCRASQSISSYLNWYQQKPGKAPKLLIYAASSLQSGVPSRFSGSGSGTDFTLTISSLQPEDFATYYCQQTYGYLHTFGQGTKLEIK
light: DIQMTQSPSSLSASVGDRVTITCRASQSIRQYLNWYQQKPGKAPKLLIYGASSLHSGVPSRFSGSGSGTDFTLTISSLQPEDFATYYCQQYYDNLPTFGQGTKLEIKRTVAAPSVFIFPPSDEQLKSGTASVVCLLNNFYPREAKVQWKVDNALQSGNSQESVTEQDSKDSTYSLSSTLTLSKADYEKHKVYACEVTHQGLSSPVTKSFNRGEC
binding result: binds

B5: 1618LO3-1210LO1 (bispecific antibody, human IgG1, kappa)
heavy: EVQLLESGGGLVQPGGSLRLSCAASGFTFSYGSMYWVRQAPGKGLEWVSSISSGSGSTHYADSVKGRFTISRDNSKNTLYLQMNSLRAEDTAVYYCARSSYYGSYYSIDYWGQGTLVTVSS[no letters for human IgG1 constant region with changes]GGGGSGGGGSEVQLLESGGGLVQPGGSLRLSCAASGFDFESYAMSWVRQAPGKGLEWVSAISGSGGSTYYADSVKGRFTISRDNSKNTLYLQMNSLRAEDTAVYYCARYYGGYYSAWMDYWGQGTLVTVSSGGGGSGGGGSGGGGSDIQMTQSPSSLSASVGDRVTITCRASQSIRSALNWYQQKPGKAPKLLIYAASSLQSGVPSRFSGSGSGTDFTLTISSLQPEDFATYYCQQTYGYLHTFGQGTKLEIK
light: DIQMTQSPSSLSASVGDRVTITCRASQSIRQYLNWYQQKPGKAPKLLIYGASSLHSGVPSRFSGSGSGTDFTLTISSLQPEDFATYYCQQYYDNLPTFGQGTKLEIKRTVAAPSVFIFPPSDEQLKSGTASVVCLLNNFYPREAKVQWKVDNALQSGNSQESVTEQDSKDSTYSLSSTLTLSKADYEKHKVYACEVTHQGLSSPVTKSFNRGEC
binding result: binds

B6: 1618LO3-1210LO2 (bispecific antibody, human IgG1, kappa)
heavy: EVQLLESGGGLVQPGGSLRLSCAASGFTFSYGSMYWVRQAPGKGLEWVSSISSGSGSTHYADSVKGRFTISRDNSKNTLYLQMNSLRAEDTAVYYCARSSYYGSYYSIDYWGQGTLVTVSS[no letters for human IgG1 constant region with changes]GGGGSGGGGSEVQLLESGGGLVQPGGSLRLSCAASGFDFDSYAMSWVRQAPGKGLEWVSAISGRGGSTYYADSVKGRFTISRDNSKNTLYLQMNSLRAEDTAVYYCARYYGGYYSAWMDYWGQGTLVTVSSGGGGSGGGGSGGGGSDIQMTQSPSSLSASVGDRVTITCRASQSIRSALNWYQQKPGKAPKLLIYAASSLQSGVPSRFSGSGSGTDFTLTISSLQPEDFATYYCQQTYGYLHTFGQGTKLEIK
light: DIQMTQSPSSLSASVGDRVTITCRASQSIRQYLNWYQQKPGKAPKLLIYGASSLHSGVPSRFSGSGSGTDFTLTISSLQPEDFATYYCQQYYDNLPTFGQGTKLEIKRTVAAPSVFIFPPSDEQLKSGTASVVCLLNNFYPREAKVQWKVDNALQSGNSQESVTEQDSKDSTYSLSSTLTLSKADYEKHKVYACEVTHQGLSSPVTKSFNRGEC
binding result: binds

B7: 1618LO11-1210 (bispecific antibody, human IgG1, kappa)
heavy: EVQLLESGGGLVQPGGSLRLSCAASGFTFDYGSMYWVRQAPGKGLEWVSSISSGSGSTYYADSVKGRFTISRDNSKNTLYLQMNSLRAEDTAVYYCARSSYYGSYYSIDYWGQGTLVTVSS[no letters for human IgG1 constant region with changes]GGGGSGGGGS[no letters for about 100 residues]YYGGYYSAWMDYWGQGTLVTVSSGGGGSGGGGSGGGGSDIQMTQSPSSLSASVGDRVTITCRASQSISSYLNWYQQKPGKAPKLLIYAASSLQSGVPSRFSGSGSGTDFTLTISSLQPEDFATYYCQQTYGYLHTFGQGTKLEIK
light: DIQMTQSPSSLSASVGDRVTITCRASQSISSYLNWYQQKPGKAPKLLIYAASSLHSGVPSRFSGSGSGTDFTLTISSLQPEDFATYYCQQYYDNLPTFGQGTKLEIKRTVAAPSVFIFPPSDEQLKSGTASVVCLLNNFYPREAKVQWKVDNALQSGNSQESVTEQDSKDSTYSLSSTLTLSKADYEKHKVYACEVTHQGLSSPVTKSFNRGEC
binding result: binds

B8: 1618LO11-1210LO2 (bispecific antibody, human IgG1, kappa)
heavy: EVQLLESGGGLVQPGGSLRLSCAASGFTFDYGSMYWVRQAPGKGLEWVSSISSGSGSTYYADSVKGRFTISRDNSKNTLYLQMNSLRAEDTAVYYCARSSYYGSYYSIDYWGQGTLVTVSS[no letters for human IgG1 constant region with changes]GGGGSGGGGSEVQLLESGGGLVQPGGSLRLSCAASGFDFDSYAMSWVRQAPGKGLEWVSAISGRGGSTYYADSVKGRFTISRDNSKNTLYLQMNSLRAEDTAVYYCARYYGGYYSAWMDYWGQGTLVTVSSGGGGSGGGGSGGGGSDIQMTQSPSSLSASVGDRVTITCRASQSIRSALNWYQQKPGKAPKLLIYAASSLQSGVPSRFSGSGSGTDFTLTISSLQPEDFATYYCQQTYGYLHTFGQGTKLEIK
light: DIQMTQSPSSLSASVGDRVTITCRASQSISSYLNWYQQKPGKAPKLLIYAASSLHSGVPSRFSGSGSGTDFTLTISSLQPEDFATYYCQQYYDNLPTFGQGTKLEIKRTVAAPSVFIFPPSDEQLKSGTASVVCLLNNFYPREAKVQWKVDNALQSGNSQESVTEQDSKDSTYSLSSTLTLSKADYEKHKVYACEVTHQGLSSPVTKSFNRGEC
binding result: binds

B9: 1210-1618.m2.m15 (bispecific antibody, human IgG1, kappa)
heavy: [no letters for about 100 residues]YYGGYYSAWMDYWGQGTLVTVSS[no letters for human IgG1 constant region with changes]THTCPPCPEPKSSDKEVQLLESGGGLVQPGGSLRLSCAASGFTFSYGSMYWVRQAPGKGLEWVSSISSGSGSTYYADSVKGRFTISRDNSKNTLYLQMNSLRAEDTAVYYCARSSYYGSYYSIDYWGQGTLVTVSSGGGGSGGGGSGGGGSDIQMTQSPSSLSASVGDRVTITCRASQSISSYLNWYQQKPGKAPKLLIYAASSLQSGVPSRFSGSGSGTDFTLTISSLQPEDFATYYCQQYYDNLPTFGQGTKLEIK
light: DIQMTQSPSSLSASVGDRVTITCRASQSISSYLNWYQQKPGKAPKLLIYAASSLQSGVPSRFSGSGSGTDFTLTISSLQPEDFATYYCQQTYGYLHTFGQGTKLEIKRTVAAPSVFIFPPSDEQLKSGTASVVCLLNNFYPREAKVQWKVDNALQSGNSQESVTEQDSKDSTYSLSSTLTLSKADYEKHKVYACEVTHQGLSSPVTKSFNRGEC
binding result: binds
